In patent US20190367516A1 (Bayer Pharma Aktiengesellschaft, priority 2015, published 2019):

Target: T1, human M2 receptor (Homo sapiens, UniProt P08172)
T1 sequence (P08172 1-466): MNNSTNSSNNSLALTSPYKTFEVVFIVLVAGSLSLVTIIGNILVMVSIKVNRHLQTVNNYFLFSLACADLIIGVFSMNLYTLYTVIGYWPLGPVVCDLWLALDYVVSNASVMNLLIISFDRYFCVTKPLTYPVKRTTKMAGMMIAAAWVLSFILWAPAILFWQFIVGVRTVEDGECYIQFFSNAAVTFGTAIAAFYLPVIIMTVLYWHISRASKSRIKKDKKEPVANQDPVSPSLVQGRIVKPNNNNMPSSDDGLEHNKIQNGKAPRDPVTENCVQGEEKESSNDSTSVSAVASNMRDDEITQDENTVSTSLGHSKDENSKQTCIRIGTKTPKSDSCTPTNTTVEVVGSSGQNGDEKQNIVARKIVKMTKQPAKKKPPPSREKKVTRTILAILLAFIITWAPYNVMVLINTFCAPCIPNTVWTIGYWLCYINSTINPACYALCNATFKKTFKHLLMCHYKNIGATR
Conditions: boosting of the acetylcholine effect at an EC20 acetylcholine concentration; for Efficiency: M2-GIRK1/4 activation test; for Emax: read-out: Efficiency, M2-GIRK1/4 activation test

| Compound | Efficiency | Emax |
| --- | --- | --- |
| CN(C)c1ccc2c(=O)c(C(=O)Nc3ccccc3C(F)(F)F)cn(-c3ccc(F)cc3F)c2n1 [Example 57, 1-(2,4-Difluorophenyl)-7-(dimethylamino)-4-oxo-N-[2-(trifluoromethyl)phenyl]-1,4-dihydro-1,8-naphthyridine-3-carboxamide] | – | 93.8% |
| CCC(NC(=O)c1cn(-c2ccc(F)cc2F)c2nc(N3CCCS3(=O)=O)ccc2c1=O)C(F)(F)F (stereo not drawn) [Example 180] | – | 96.6% |
| O=C(NC12CC3CC(CC(C3)C1)C2)c1cn(-c2ccc(F)cc2F)c2nc(N3CCC4(C3)CC4(F)F)ccc2c1=O (stereo not drawn) [Example 13, 7-(1,1-Difluoro-5-azaspiro[2.4]hept-5-yl)-1-(2,4-difluorophenyl)-4-oxo-N-(tricyclo[3.3.1.1^3,7]dec-1-yl)-1,4-dihydro-1,8-naphthyridine-3-carboxamide] | – | 95.8% |
| CCC(NC(=O)c1cn(-c2ccc(F)cc2F)c2nc(N(C)C)ccc2c1=O)C(F)(F)F (racemic) [Example 146, rac-1-(2,4-Difluorophenyl)-7-(dimethylamino)-4-oxo-N-(1,1,1-trifluorobutan-2-yl)-1,4-dihydro-1,8-naphthyridine-3-carboxamide] | – | 95.8% |
| CC(C)CC(NC(=O)c1cn(-c2ccc(F)cc2F)c2nc(N3CCS(=O)(=O)C3)ccc2c1=O)C(F)(F)F (stereo not drawn) [Example 78, 1-(2,4-Difluorophenyl)-7-(1,1-dioxido-1,3-thiazolidin-3-yl)-4-oxo-N-[1,1-trifluoro-4-methylpentan-2-yl]-1,4-dihydro-1,8-naphthyridine-3-carboxamide] | – | 94.3% |
| O=C(Nc1c(Cl)cccc1Cl)c1cn(-c2ccc(F)cc2F)c2nc(NCC(F)(F)F)ccc2c1=O [Example 163, N-(2,6-Dichlorophenyl)-1-(2,4-difluorophenyl)-4-oxo-7-[(2,2,2-trifluoroethyl)amino]-1,4-dihydro-1,8-naphthyridine-3-carboxamide] | – | 92.8% |
| O=C(NC12CC3CC(CC(C3)C1)C2)c1cn(-c2ccc(F)cc2F)c2nc(N3CCC(O)(O)[C@H](F)C3)ccc2c1=O [Example 7, 1-(2,4-Difluorophenyl)-7-[(3R)-3-fluoro-4,4-dihydroxypiperidin-1-yl]-4-oxo-N-(tricyclo[3.3.1.1^3,7]dec-1-yl)-1,4-dihydro-1,8-naphthyridine-3-carboxamide] | – | 100% |
| CN(CCF)c1ccc2c(=O)c(C(=O)NC34CCC(F)(CC3)CC4)cn(-c3ccc(F)cc3F)c2n1 [Example 110, 1-(2,4-Difluorophenyl)-N-(4-fluorobicyclo[2.2.2]oct-1-yl)-7-[(2-fluoroethyl)(methyl)amino]-4-oxo-1,4-dihydro-1,8-naphthyridine-3-carboxamide] | – | 98% |
| CN(CC(F)F)c1ccc2c(=O)c(C(=O)NC34CC5CC(CC(C5)C3)C4)cn(-c3ccc(F)cc3F)c2n1 [Example 112, 7-[(2,2-Difluoroethyl)(methyl)amino]-1-(2,4-difluorophenyl)-4-oxo-N-(tricyclo[3.3.1.1^3,7]dec-1-yl)-1,4-dihydro-1,8-naphthyridine-3-carboxamide] | – | 85.5% |
| CN(C)c1ccc2c(=O)c(C(=O)NC34CC5CC(CC(C)(C5)C3)C4)cn(-c3ccc(F)cc3F)c2n1 [Example 41, 1-(2,4-Difluorophenyl)-7-(dimethylamino)-N-(3-methyltricyclo[3.3.1.1^3,7]dec-1-yl)-4-oxo-1,4-dihydro-1,8-naphthyridine-3-carboxamide] | – | 99.4% |
| CC(NC(=O)c1cn(-c2ccc(F)cc2F)c2nc(N(C)C)ccc2c1=O)C(F)(F)F (racemic) [Example 147, rac-1-(2,4-Difluorophenyl)-7-(dimethylamino)-4-oxo-N-(1,1,1-trifluoropropan-2-yl)-1,4-dihydro-1,8-naphthyridine-3-carboxamide] | – | 94.9% |

Second part, the compound after the results:

| Efficiency | Emax | Compound |
| --- | --- | --- |
| 99.0% | – | CC[C@@H](NC(=O)c1cn(-c2ccc(F)cc2F)c2nc(N3CC4CNC(=O)C4C3)ccc2c1=O)C(F)(F)F (single isomer, unassigned) [Example 223] |
| – | 93% | CC[C@@H](NC(=O)c1cn(-c2c(F)cccc2F)c2nc(N3CC4CC4(O)C3)ccc2c1=O)C(F)(F)F (mixture of isomers) [Example 304, 1-(2,6-Difluorophenyl)-7-[1-hydroxy-3-azabicyclo[3.1.0]hex-3-yl]-4-oxo-N-[(2R)-1,1,1-trifluorobutan-2-yl]-1,4-dihydro-1,8-naphthyridine-3-carboxamide] |
| – | 93.3% | C[C@H](NC(=O)c1cn(-c2c(F)cc(F)cc2F)c2nc(N3C[C@@H](O)CC3=O)ccc2c1=O)C(F)(F)F [Example 330, 7-[(4S)-4-Hydroxy-2-oxopyrrolidin-1-yl]-4-oxo-1-(2,4,6-trifluorophenyl)-N-[(2S)-1,1,1-trifluoropropan-2-yl]-1,4-dihydro-1,8-naphthyridine-3-carboxamide] |
| 100.0% | – | O=C(NC(c1c(F)cccc1F)C(F)(F)F)c1cn(-c2ccc(F)cc2F)c2nc(N3C[C@@H](O)CC3=O)ccc2c1=O (single isomer, unassigned) [Example 246] |
| – | 100% | CC[C@@H](NC(=O)c1cn(-c2ccc(F)cc2F)c2nc(N3CC4CC4(O)C3)ccc2c1=O)C(F)(F)F (single isomer, unassigned) [Example 314] |
| – | 100% | CC[C@H](NC(=O)c1cn(-c2c(F)cccc2Cl)c2nc(N3C[C@@H](O)CC3=O)ccc2c1=O)C(F)(F)F [Example 351, 1-(2-Chloro-6-fluorophenyl)-7-[(4S)-4-hydroxy-2-oxopyrrolidin-1-yl]-4-oxo-N-[(2S)-1,1,1-trifluorobutan-2-yl]-1,4-dihydro-1,8-naphthyridine-3-carboxamide] |
| – | 85.3% | CC[C@@H](NC(=O)c1cn(-c2ccc(F)cc2F)c2nc(N3CCC(C)(OC)C3)ccc2c1=O)C(F)(F)F (mixture of isomers) [Example 191, 1-(2,4-Difluorophenyl)-7-[3-methoxy-3-methylpyrrolidin-1-yl]-4-oxo-N-[(2R)-1,1,1-trifluorobutan-2-yl]-1,4-dihydro-1,8-naphthyridine-3-carboxamide] |
| – | 96% | CC(C)(CC(F)(F)F)NC(=O)c1cn(-c2c(F)cc(F)cc2F)c2nc(N3CCN(CCO)C3=O)ccc2c1=O [Example 375, 7-[3-(2-Hydroxyethyl)-2-oxoimidazolidin-1-yl]-4-oxo-N-(4,4,4-trifluoro-2-methylbutan-2-yl)-1-(2,4,6-trifluorophenyl)-1,4-dihydro-1,8-naphthyridine-3-carboxamide] |
| 94.0% | – | CC[C@@H](NC(=O)c1cn(-c2ccccc2C(F)(F)F)c2nc(N3C[C@@H](O)CC3=O)ccc2c1=O)C(F)(F)F (single isomer, unassigned) [Example 270] |
| – | 100% | CC[C@@H](NC(=O)c1cn(-c2ccc(F)cc2F)c2nc(N3CC(C)OC3=O)ccc2c1=O)C(F)(F)F (mixture of isomers) [Example 266, 1-(2,4-Difluorophenyl)-7-[5-methyl-2-oxo-1,3-oxazolidin-3-yl]-4-oxo-N-[(2R)-1,1,1-trifluorobutan-2-yl]-1,4-dihydro-1,8-naphthyridine-3-carboxamide] |
| – | 91% | CC(C)(NC(=O)c1cn(-c2c(F)cc(F)cc2F)c2nc(N3CCCN(CCO)C3=O)ccc2c1=O)C(F)F [Example 382, N-(1,1-Difluoro-2-methylpropan-2-yl)-7-[3-(2-hydroxyethyl)-2-oxotetrahydropyrimidin-1(2H)-yl]-4-oxo-1-(2,4,6-trifluorophenyl)-1,4-dihydro-1,8-naphthyridine-3-carboxamide] |
| – | 96% | CC[C@@H](NC(=O)c1cn(-c2c(F)cccc2Cl)c2nc(N3CC[C@H](O)C3=O)ccc2c1=O)C(F)(F)F [Example 309, 1-(2-Chloro-6-fluorophenyl)-7-[(3S)-3-hydroxy-2-oxopyrrolidin-1-yl]-4-oxo-N-[(2R)-1,1,1-trifluorobutan-2-yl]-1,4-dihydro-1,8-naphthyridine-3-carboxamide] |
| – | 93% | CC[C@@H](NC(=O)c1cn(-c2ccc(F)cc2F)c2nc(N3CCC4CC4(O)C3)ccc2c1=O)C(F)(F)F (stereo partly drawn) [Example 354, 1-(2,4-Difluorophenyl)-7-[1-hydroxy-3-azabicyclo[4.1.0]hept-3-yl]-4-oxo-N-[(2R)-1,1,1-trifluorobutan-2-yl]-1,4-dihydro-1,8-naphthyridine-3-carboxamide] |
| – | 100% | COCC(C)(NC(=O)c1cn(-c2ccc(F)cc2F)c2nc(N3C[C@@H](O)CC3=O)ccc2c1=O)C(F)(F)F (stereo partly drawn) [Example 236, 1-(2,4-Difluorophenyl)-7-[(4S)-4-hydroxy-2-oxopyrrolidin-1-yl]-4-oxo-N-[1,1,1-trifluoro-3-methoxy-2-methylpropan-2-yl]-1,4-dihydro-1,8-naphthyridine-3-carboxamide] |
| – | 95.5% | CC(C)(NC(=O)c1cn(-c2c(F)cc(F)cc2F)c2nc(N3C[C@@H](O)[C@H](O)C3)ccc2c1=O)C1CC1 [Example 379, N-(2-Cyclopropylpropan-2-yl)-7-[(3R,4R)-3,4-dihydroxypyrrolidin-1-yl]-4-oxo-1-(2,4,6-trifluorophenyl)-1,4-dihydro-1,8-naphthyridine-3-carboxamide] |
| – | 99% | CC[C@H](NC(=O)c1cn(-c2c(F)cc(F)cc2F)c2nc(N3CCN/C3=N\C(=O)OC)ccc2c1=O)C(F)(F)F [Example 377, Methyl {1-[5-oxo-6-{[(2S)-1,1,1-trifluorobutan-2-yl]carbamoyl}-8-(2,4,6-trifluorophenyl)-5,8-dihydro-1,8-naphthyridin-2-yl]imidazolidin-2-ylidene}carbamate] |
